According to ChEMBL document CHEMBL4888484, “Replenishing the malaria drug discovery pipeline: Screening and hit evaluation of the MMV Hit Generation Library 1 (HGL1) against asexual blood stage Plasmodium falciparum ,using a nano luciferase reporter read-out” (2022):
Among all 150,000 compounds or so, about 540 (0.36%) showed an effect of 50% or more. This is one part of the list.

Test system: Plasmodium falciparum
Experiment: Primary screen in NF54 nanoGlo assay, in single point, at 2uM, 72h; a lower Z score goes with more inhibition
Format: functional, Erythrocyte
Details: timepoint 72 hour

| Structure (SMILES) | % Inhibition | Z score |
| --- | --- | --- |
| COc1ccccc1[C@H](CNS(=O)(=O)c1cccs1)N1CCCC1 | -3% | 0.53 |
| c1ccc(NCc2ccccc2OCCN2CCOCC2)nc1 | -2% | 0.25 |
| C=CCOC1CCN(C(=O)C2CC2c2cnn(C)c2)CC1 (stereo not drawn) | -5% | 0.42 |
| COc1ccc(Nc2ssc(=O)c2Cl)cc1OC | -9% | 1.67 |
| O=C(O)C1CC1C(=O)NC(C1CCCC1)C(F)(F)F (stereo not drawn) | 3% | -0.56 |
| C[C@]1(O)CCN(C(=O)c2ccc3[nH]ccc3c2)C[C@H]1Cc1ccccc1 | -7% | 1.13 |
| CCCc1cnc(N2CCN(C)C(=O)C2)nc1 | -10% | 1.97 |
| COCCN1C[C@@H](Cc2cc(C)c(O)c(C)c2)CC1=O | -13% | 1.88 |
| CCc1onc(C)c1[C@@H]1CCCN1C(=O)NCc1ccc(F)cc1 | -1% | 0.08 |
| CN1CCN(C(=O)Nc2ccc3c(c2)N(C)S(=O)(=O)N3C)CC1 | -3% | 0.38 |
| CO[C@H]1CN(c2ccc(C)cc2)C12CCN(C(=O)C(C)C)CC2 | -19% | 2.42 |
| Nc1ccc(Oc2ccc3nc(-c4ccc(Br)cc4)c(-c4ccc(Br)cc4)nc3c2)cc1 | 3% | -0.34 |
| CO[C@H]1C[C@H]2CC[C@@H](C1)N2c1nc2ccccc2o1 | -8% | 1.16 |
| COc1cccc2c(N3CCN(c4nccnc4C)CC3)ccnc12 | -2% | 0.37 |
| CC(C)c1csc(C(=O)NCc2n[nH]c(=O)[nH]2)n1 | -2% | 0.41 |
| Cc1cc(C(=O)Nc2cccc(N3CCCC3=O)c2)c(C)s1 | -4% | 0.54 |
| CN(C)[C@@H]1C[C@@H](CO)N(Cc2cccc3c2oc2ccccc23)C1 | 5% | -0.91 |
| C[C@H]1CNC(=O)CCN1C(=O)c1cc(=O)[nH]c2ccccc12 | -5% | 0.75 |
| c1ccc(-c2cc(CN(CCn3cccn3)Cc3cc(-c4ccccc4)no3)on2)cc1 | -7% | 1.16 |
| O=C(COc1ccc(Br)cc1)N(Cc1nnc(-c2ccc(Cl)cc2)o1)C1CCCC1 | -4% | 0.52 |
| COC(=O)NS(=O)(=O)Nc1ccc(Cl)cc1 | -7% | 0.88 |
| Cc1ncc(CCNC(=O)N[C@H]2CCOCC23CCCC3)s1 | -8% | 1.44 |
| CN(C)c1ccc(NC(=O)C2CCC(c3ccccc3)N(C(=O)NCc3ccccc3)C2)cc1 (stereo not drawn) | 2% | -0.21 |
| O=C1NC[C@H]2O[C@H](CCOc3ccccc3C(=O)N3CCN(C4CCCCC4)C[C@@H]13)CC[C@H]2n1cc(CN2CCOCC2)nn1 | 16% | -1.82 |
| CCC(=O)N1CCCNC(=O)[C@@H]1Cc1ccccc1 | -9% | 1.01 |
| CCc1nnsc1C(=O)NCc1ccc(N2CCCCC2)nc1 | 1% | -0.25 |
| COc1cccc(Cn2c(=O)c(C(=O)NCc3ccccn3)nn(-c3ccc(C)c(C)c3)c2=O)c1 | -7% | 0.89 |

| Structure (SMILES) | % Inhibition | Z score |
| --- | --- | --- |
| COc1ccc(Cn2ncc(C)c2NC(=O)c2scnc2C2CC2)cc1OC | -8% | 1.06 |
| CC(=O)NC1(c2noc(C3CCCCCCC3)n2)CCN(C)CC1 | -11% | 1.16 |
| COc1ccccc1N1CCN(c2ncccc2CNC(=O)C2CCCC2)CC1 | -23% | 1.99 |
| CC1C(=O)NCCN1C(=O)C1C2CCCCC21 (stereo not drawn) | -7% | 0.84 |
| CN(Cc1ccc(-n2cccn2)cc1)C[C@H]1CCOC1 | -15% | 2.93 |
| CCn1cc(CNC(=O)[C@H]2CCCN(S(=O)(=O)c3cnn(C)c3C)C2)cn1 | -4% | 0.45 |
| Cc1noc(C)c1CCC(=O)N(C)C1CCCCCCC1 | -6% | 0.87 |
| CCOc1ccnc(NCC2(Cn3cccn3)CC2)n1 | -18% | 2.12 |
| O[C@H](COCc1ccccc1)Cn1nnc(-c2ccsc2)n1 | -2% | 0.37 |
| Cc1c(CC(=O)N2CCC[C@H](O)C2)c2c(n1Cc1ccc(F)cc1)CCCC2=O | -14% | 1.62 |
| CN1CCN(c2ccc(N3CCN(C(=O)COc4ncccn4)CC3)nn2)CC1 | -8% | 1.27 |
| CC(C)(C)c1nnc2ccc(N[C@H](CO)Cc3ccccc3)nn12 | 13% | -1.22 |
| CC(C)n1c(=O)[nH]c2cc(-c3noc(-c4ccc(C(F)(F)F)cc4)n3)ccc21 | 0% | 0.01 |
| C[C@@H](Cc1ccncc1)NC(=O)Cc1c[nH]c(=O)[nH]c1=O | -6% | 0.56 |
| O=C(NC[C@H]1Cc2ccccc21)c1ccc(-c2ccco2)[nH]c1=O | -14% | 1.63 |
| COc1ccc(CC(=O)N2C3CCC2Cn2c(CC(C)C)nnc2C3)cc1 (stereo not drawn) | 3% | -0.42 |
| C[C@H]1NC(=O)Cc2ccc(cc2)OCCn2cc(nn2)CNC(=O)[C@H](Cc2ccccc2)NC1=O | -3% | 0.55 |
| COc1cccc(-c2ncc(CNC(=O)CN3C(=O)CNC3=O)s2)c1 | 9% | -0.87 |
| O=C(CCC(=O)c1ccccc1)Nc1ccc2c(c1)CCC2 | 3% | -0.26 |
| Cc1ncc(C(=O)NCCc2c(C)n3c4c(cccc24)CCC3)c(C)n1 | -16% | 1.6 |
| C[C@H]1c2ccc(Cl)n2CCN1CCC(=O)N1CCN(C)CC1 | -1% | 0.11 |
| c1ccc2c(c1)CC(NCCc1nc(C3CC3)no1)C2 | -18% | 1.79 |
| CC(C)C[C@H]1C(=O)NCCN1c1ncncc1Br | -11% | 1.01 |
| CCCNc1ccc(C#N)cc1NC(=O)CC1(O)CCCC1 | -9% | 1.19 |
| CS(=O)(=O)N(C1CCOCC1)C1CN(S(=O)(=O)c2cccc3nsnc23)C1 | -6% | 1.1 |
| O=C(NCc1ccccc1CN1CCOCC1)Nc1cccnc1 | -4% | 0.46 |
| CNC(=O)c1nsc(C(=O)N2CCN(c3cccc(Cl)c3)CC2)c1N | -14% | 1.58 |
